Experimental data from the supplement of paper PMC10126150.
Sequences with one replicate were seen in a single cluster, so their values are uncertain.

Test system: ATP
Experiment: switch fluorescence ratio, 500 uM ATP over buffer (Cy3 cluster intensity, sum of 5 cycles each) (fold (ratio)); higher = stronger signal-on switching upon ATP binding; sequences stand for … in TCGTCGGCAGCGTCAGATGTGTATAAGAGACAGTTTTTTTTTTTTTTTTTTTTTTTTT…TC
Details: aptamer strand: ATP DNA aptamer (quencher-CACCTGGGGGAGTATTGCGGAGGAAGG + anchor), 100 nM annealed; ATP concentration: 500 uM; one replicate
Outline: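 Cy3-labelled switching-strand clusters on a modified Illumina MiSeq flow-cell were annealed to 100 nM quencher-labelled ATP aptamer and imaged first in selection buffer, then after 15 min with 500 uM ATP at 22 °C. NaOH stripping and re-annealing separated each of five buffer/ATP cycles, and clusters outside 100-1000 RFU were excluded. The fluorescence ratio sums target-cycle Cy3 intensity over buffer-cycle Cy3 intensity per cluster and averages it per switch-domain sequence.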
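Also: ATP exposure 15 min at 22 °C before imaging.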

| Sequence | switch fluorescence ratio |
| --- | --- |
| ATTCTGACG | 1.05 |
| ATTCTATGGA | 1.03 |
| ACCTGCCTGA | 1.12 |
| TCGGTTCCTT | 1.02 |
| CCAGAGATGG | 1.01 |
| CTGGATGTGT | 0.975 |
| GTCCGTTAG | 1.01 |
| CGGAGTAGTT | 1.08 |
| TCTTAATAGT | 0.966 |
| TTTGGCGCTT | 1.04 |
| ATCAACAAT | 1.03 |
| TGCATGGGTA | 1.03 |
| GCGGGCGCCA | 1.01 |
| CATGGTTAAT | 1.01 |
| TGTCACATCG | 0.98 |
| GGGCTTTTCC | 1.06 |
| GGGGACCTTT | 1.03 |
| AGAGGCTTGC | 1.17 |
| CTCTGCATGT | 4.65 |
| AAAAACCTTT | 1.04 |
| TTAGAAGAGT | 0.98 |
| TTGGGCCACT | 0.955 |

| Sequence | switch fluorescence ratio |
| --- | --- |
| CAAACGAGAA | 1.08 |
| TGAGTTGCCA | 1 |
| TGGTAAAACG | 1.06 |
| AAACAGCCCA | 0.972 |
| TCTAGAATGT | 1 |
| ACTTTCGACA | 1.17 |
| CTGAAGACGG | 1.01 |
| CGCGTCGCGC | 1 |
| TTAGGAGACG | 1.11 |
| GGTCTCATGC | 1.02 |
| TCGCTACGGG | 1.02 |
| ACATACGCTC | 1.35 |
| CAGCGATTAG | 1.08 |
| AAAGGACTTC | 1.06 |
| TCTAGATACC | 1.01 |
| CACCCGGCTC | 1.09 |
| ATAATGAGGC | 0.933 |
| ACATTATTAA | 1.04 |
| GGTGTGTTTA | 0.957 |
| TTGGCTGTTG | 0.992 |
| GAGTATGGAC | 0.906 |
| AATGTGGTGG | 0.93 |

| Sequence | switch fluorescence ratio |
| --- | --- |
| GCGGCTCGAC | 1.01 |
| TAGGTCTGAG | 0.969 |
| CCGTGCTTTA | 1.24 |
| CTTGCCAGTT | 1 |
| AGCTGCGTGG | 1.02 |
| GCCCGAAGGC | 1.04 |
| TCGTAATGGG | 1.03 |
| CCCGTGGCTG | 0.998 |
| TAGGCTTGCT | 1.01 |
| TTGTCATCCG | 1.05 |
| CTCGCTCATA | 1.28 |
| GTATGATTAG | 1.01 |
| ATCTATTAAT | 1.03 |
| GGCGGGTTGT | 0.969 |
| CGAAATGGGA | 0.994 |
| CGGGACCGCT | 0.996 |
| TCGTTCTGTC | 1.05 |
| AAGGCTGGGA | 1 |
| TCGGGAAAGA | 1.12 |
| TAATTGAGG | 1.07 |
| TAGTTTACGT | 1.03 |
| AGGTCTCGTT | 1 |

| Sequence | switch fluorescence ratio |
| --- | --- |
| TGAGGTTGTT | 1.01 |
| GGCCGACGCG | 1.06 |
| TACGTATGCA | 1.05 |
| GCCCATGCAC | 1.05 |
| CGTGTGTGT | 0.998 |
| AGTAGTCGCA | 0.927 |
| GCAACAGTG | 1.1 |
| GGCAACGATG | 1.02 |
| GACATCATAT | 1.05 |
| ATTTTCTCAG | 0.968 |
| GAACCATGTG | 1.07 |
| GGGGGAACCC | 0.962 |
| ACCATTTTAT | 1.02 |
| CTACGAGGCT | 1.11 |
| AGCGGATCTC | 1.08 |
| GGCCAGGTAA | 1.07 |
| TATGTTCAC | 0.944 |
| CAGCTCGGGC | 1.03 |
| TCTTTTTC | 1.16 |
